Measured values from PMC4336329 (PLoS ONE, 2015).
In all, about 310,000 compounds went through this assay and about 2,200 (0.71%) showed an effect of 50% or more. Effects have a minus sign here. The list shows a part of the results.

The molecules below were run against human ether-à-go-go-related gene (hERG) potassium channel (human, UniProt Q12809) (assay: primary screen, population patch clamp on CHO cells stably expressing hERG).
Chain of human ether-à-go-go-related gene (hERG) potassium channel (Q12809 whole entry, looked up): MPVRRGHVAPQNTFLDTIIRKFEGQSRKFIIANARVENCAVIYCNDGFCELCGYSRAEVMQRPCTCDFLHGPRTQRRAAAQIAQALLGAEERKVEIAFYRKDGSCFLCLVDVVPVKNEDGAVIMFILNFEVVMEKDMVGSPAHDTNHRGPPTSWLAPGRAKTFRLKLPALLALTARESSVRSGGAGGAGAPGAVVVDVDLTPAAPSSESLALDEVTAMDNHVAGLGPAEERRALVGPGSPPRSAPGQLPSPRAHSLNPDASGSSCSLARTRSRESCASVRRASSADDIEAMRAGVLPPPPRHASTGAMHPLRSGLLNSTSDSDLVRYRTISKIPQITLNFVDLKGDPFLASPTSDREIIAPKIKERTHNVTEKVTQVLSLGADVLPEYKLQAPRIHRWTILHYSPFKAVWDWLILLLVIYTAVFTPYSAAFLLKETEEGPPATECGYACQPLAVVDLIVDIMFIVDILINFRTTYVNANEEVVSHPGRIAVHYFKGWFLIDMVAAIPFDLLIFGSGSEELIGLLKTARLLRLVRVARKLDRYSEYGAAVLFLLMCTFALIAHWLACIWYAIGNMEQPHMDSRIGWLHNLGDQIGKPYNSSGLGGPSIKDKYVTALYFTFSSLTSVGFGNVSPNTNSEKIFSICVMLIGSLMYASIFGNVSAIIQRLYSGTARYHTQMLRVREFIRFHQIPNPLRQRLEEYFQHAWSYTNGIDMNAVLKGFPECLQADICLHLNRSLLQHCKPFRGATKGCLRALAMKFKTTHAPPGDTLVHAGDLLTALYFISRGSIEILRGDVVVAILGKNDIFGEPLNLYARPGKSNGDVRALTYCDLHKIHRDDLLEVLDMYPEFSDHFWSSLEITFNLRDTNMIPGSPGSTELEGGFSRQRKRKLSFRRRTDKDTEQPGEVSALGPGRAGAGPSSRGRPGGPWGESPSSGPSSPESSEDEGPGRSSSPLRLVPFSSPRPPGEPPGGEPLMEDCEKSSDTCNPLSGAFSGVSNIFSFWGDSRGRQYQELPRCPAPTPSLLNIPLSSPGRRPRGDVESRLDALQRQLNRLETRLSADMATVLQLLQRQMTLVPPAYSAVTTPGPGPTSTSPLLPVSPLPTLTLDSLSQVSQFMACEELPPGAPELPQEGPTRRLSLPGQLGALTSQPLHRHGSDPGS

Point of comparison: `COc1cc(CN2CCNC(=O)C2CC(=O)N2CCc3ccccc3C2)cc(OC)c1` (centres unmarked), “hERG current change (%, negative = inhibition) at 1uM” value 4.46%. Against it:
- NC(=O)COC(=O)/C=C/c1ccc(S(=O)(=O)N2CCCCCC2)cc1 — higher, 9.9%
- COc1ccc(CNC(=O)C(C)N2C(=O)COc3ccc(C)cc32)c(OC)c1 (centres unmarked) — higher, 10.4%
- CCCN1Cc2cccc(C(=O)NCCc3ccccc3)c2C1=O — higher, 11.4%
- CCCCC(CC)C(=O)NCCc1ccc(S(N)(=O)=O)cc1 (centres unmarked) — higher, 7.34%
- O=c1cc(O)nc(SCc2ccccc2Cl)[nH]1 — higher, 12%
- COCCSc1nnc(NC(=O)c2ccc(NC(=O)C(C)C)cc2)s1 — higher, 9.46%
- CCOc1ccccc1N(CC(=O)N(C)Cc1ccccc1)S(=O)(=O)c1ccccc1 — lower, -1.94%
- Nc1nnc(CC(=O)Nc2ccccc2)s1 — higher, 9.21%
- CCN(CC)Cc1c[nH]c2ccccc12 — higher, 6.6%
- CCOc1ccc(C(=O)C(C)OC(=O)Cn2[nH]c(=O)c3ccccc3c2=O)cc1 (centres unmarked) — lower, 4.04%
- Cc1ccc(S(=O)(=O)N2C(=O)CCC2C(=O)O/N=C(\N)c2ccccc2)cc1 (centres unmarked) — higher, 5.82%
- Cn1c(=O)[nH]c(Nc2ccc(F)cc2)c([N+](=O)[O-])c1=O — higher, 7.68%
- Cc1cc(C)c2c(=O)[nH]c(SCC(=O)Nc3ccc(Br)cc3)nc2n1 — higher, 18.2%
- CN(C)S(=O)(=O)c1cc(NC(=O)CNCc2ccc(F)cc2)ccc1Cl.O=C(O)C(=O)O — higher, 5.02%
- CCC1(CC)Cc2ccccc2C(=C(C#N)C#N)N1 — higher, 13.6%
- O=C(COC(=O)c1ccc(Br)o1)NC1CCCc2ccccc21 (centres unmarked) — higher, 11.5%
- C=CCNCCOc1ccccc1-c1ccccc1.O=C(O)C(=O)O — lower, 3.97%
- CCN1CCN(CCCOc2ccc(Cl)cc2Br)CC1.O=C(O)C(=O)O — lower, -45.7%
- Cc1ccc(S(=O)(=O)N2CCN(CC(=O)N/N=C\c3ccncc3)CC2)cc1 — lower, -26.2%
- O=C(O)c1ccc(S(=O)(=O)N(Cc2cccs2)CC2CCCO2)cc1 (centres unmarked) — higher, 9.71%
- O=C1CNC(=S)N1CCOc1ccccc1 — higher, 12.7%
- COc1ccccc1N1CCN(C2CCN(C(=O)c3cccc(F)c3)CC2)CC1.O=C(O)C(=O)O — higher, 8.64%
- O=[N+]([O-])c1ccc2nccn2c1 — higher, 4.94%
- CCC(C)N1C(=O)NC(=O)C2(Cc3c(ccc4ccccc34)N(C)C2)C1=O (centres unmarked) — higher, 8.68%
- N/C(=N\OC(=O)CSc1ccccc1)c1ccccn1 — higher, 10.9%
- CC(C)C(=O)Nc1cccc(C(=O)NCc2ccc(S(N)(=O)=O)cc2)c1 — higher, 6.91%
- CC(C)(CC(=O)O)CC(=O)N1CCN(c2nc3cc(Cl)ccc3s2)CC1 — higher, 9.82%
- COC(=O)C1=C(C)N(Cc2ccco2)C(=O)/C1=C\c1ccc([N+](=O)[O-])cc1 — higher, 5.21%
- Cc1ccccc1NC(=O)c1ccccc1NC(=O)CCC(=O)O — higher, 12.6%
- COc1cc(C(=O)NNC(=O)COc2ccc(Cl)cc2)ccc1OCC(=O)N1CCOCC1 — higher, 7.94%
- CCC(=O)OCc1c(C(F)(F)F)nn(C)c1Sc1ccc(F)cc1 — higher, 12.7%
- CCc1nn(CC(=O)N2CCN(CC)CC2)c(=O)c2cccn12 — higher, 10.4%
- CCOC(=O)c1c(C)sc2c1N(C(C)=O)c1cc(Cl)ccc1S2 — higher, 5.46%
- Clc1cc(-c2ccc(/C=N/n3cnnc3)o2)ccc1Br — lower, 3.54%
- O=c1[nH]c(SCc2ccccc2)nc2c1sc1ccccc12 — higher, 14.7%
- O=c1c(CN2CCN(c3cccc(Cl)c3)CC2)coc2c(Cl)cc(Cl)cc12 — higher, 10.4%
- COC(=O)c1ccc(C(=O)OC)c(NC(=S)N2CCCCC2)c1 — lower, -7.19%
- COc1ccc(CCNC(=O)C(=O)NCC2OCCCN2S(=O)(=O)c2cc(C)ccc2C)cc1 (centres unmarked) — higher, 7.7%
- CCOC(=O)C1=C(C)NC2=C(C(=O)CC(C)(C)C2)C1c1ccc(O)c(OCC)c1 (centres unmarked) — higher, 12.3%
- CCN(CC)S(=O)(=O)c1ccc(OC)c(NC(=O)C(C)Oc2ccc3c(C)cc(=O)oc3c2)c1 (centres unmarked) — lower, -2.2%
- CCOc1ccc(C(C)C)cc1S(=O)(=O)n1ccnc1C — higher, 11.8%
- O=C(O)CCc1ccc(-c2ccccc2)n1-c1ccc(C(=O)O)cc1 — higher, 10.7%
- COC(=O)c1ccc(NC(=S)NCCc2cccc(C)c2)cc1 — higher, 6.21%
- CN1C(=O)/C(=C/c2cn(CC(=O)N3CCCCC3)c3ccccc23)c2ccccc21 — higher, 12.8%
- CCOc1cc(/C=C/C(=O)OCC(=O)NCc2ccco2)cc(Cl)c1OC — lower, -13.2%
- COc1ccc(/C(N)=N/OC(=O)C2CCC(=O)N2S(=O)(=O)c2ccc(C)cc2)cc1OC (centres unmarked) — higher, 13.6%
- COc1ccc(S(=O)(=O)N2CCCOC2CNC(=O)C(=O)NCCc2ccco2)cc1C (centres unmarked) — higher, 9.39%
- COc1ccc(-n2nc3c(c2NC(=O)COc2ccccc2)CS(=O)C3)cc1 (centres unmarked) — lower, -3.74%
- COc1ccc(C(=O)C(c2ccccc2)N2CCOCC2)cc1.Cl (centres unmarked) — lower, -2.23%
- O=C(O)[C@H]1CCCC[C@H]1C(=O)Nc1ccc(Nc2ccccc2)cc1 — higher, 4.76%
- Cc1cc(-c2nnc3n2N=C(c2ccccc2Br)CS3)n[nH]1 — higher, 8.21%
- CC1(C)CC(=O)C=C(NC2CCCCCC2)C1 — higher, 5.7%
- CC(C)C(=O)N1CCN(c2ccccc2NC(=O)COc2ccc(C3CCCCC3)cc2)CC1 — lower, -8.38%
- COc1ccc(/C=N/Nc2nncn2N)cc1Br — higher, 15.2%
- Cc1nc2sc(C(N)=O)c(N)c2c2c1CCCC2 — higher, 11.2%
- Cc1nc(CNC(=O)c2cc(COc3c(F)cccc3F)on2)cs1 — higher, 5.1%
- CN(CC(=O)Nc1cc(Cl)ccc1Cl)C1CCS(=O)(=O)C1 (centres unmarked) — higher, 10.1%
- Cc1ccc(C(=O)CSc2nnc(-c3ccc4[nH]c(C)c(C)c4c3)o2)cc1C — higher, 13.3%
- O=C1CCCCN1CCCC(=O)N1CCCC(Nc2ccc(F)c(F)c2)C1 (centres unmarked) — higher, 8.46%
- COc1ccc(N2Cc3cccc(C(=O)NC(C)CCc4ccco4)c3C2=O)cc1 (centres unmarked) — higher, 5.97%
- Cc1cc2ccccc2c(=O)n1CC(=O)NCC1COc2ccccc2O1 (centres unmarked) — higher, 7.04%
- COc1ccccc1NC(=O)Cc1ccc(-c2ccccc2)cc1 — higher, 18.9%
- O=C(O)C1C2CCC(C2)C1C(=O)NCCc1ccccc1 (centres unmarked) — higher, 11%
- CC(=O)c1ccc(OCC(=O)N2CCCC(Nc3ccc(C)c(C)c3)C2)cc1 (centres unmarked) — higher, 13.2%
- O=C(Nc1ccccc1)N1CCC(C(=O)N2CCN(Cc3ccccc3)CC2)CC1 — lower, -5.59%
- Cc1ccc(-n2c(=O)cc(NCc3cccnc3)[nH]c2=O)cc1 — lower, -6.03%
- C=CCC1c2cccc(C(=O)O)c2C(=O)N1c1ccc(Cl)cc1 (centres unmarked) — lower, -0.498%
- COc1cc(OC)cc(C(=O)NCC(=O)OCC(=O)/C=C2/N(C)c3ccccc3C2(C)C)c1 — higher, 15.1%
- CN(C)C(=C(C#N)C#N)N1CCN(c2ccc(Cl)c(Cl)c2)CC1 — lower, -37.6%
- Cn1ccnc1-c1ccc(-c2nccn2C)cc1 — higher, 10.9%
- C=CCN(CC(=O)NC1CCS(=O)(=O)C1)S(=O)(=O)c1ccccc1C(F)(F)F (centres unmarked) — higher, 15.3%
- Cc1ccccc1-n1c(=O)n(Cc2ccccc2)c(=O)c2[nH]cnc21 — higher, 7.2%
- c1ccc2c(c1)Sc1ccccc1N2CC1CN2CCC1CC2 (centres unmarked) — lower, 0.96%
- CCc1nnc(NC(=O)C2CCN(S(=O)(=O)Cc3ccccc3)CC2)s1 — higher, 8.02%
- CCn1c(SCc2c(F)cccc2Cl)nnc1-c1ccco1 — lower, -0.296%
- O=C(Nc1ccncc1)c1cccs1 — higher, 9.52%
- COc1ccc(CCC(=O)OCC(=O)Nc2ccc(OC)c(OC)c2)cc1OC — higher, 18.5%
- O=C(NCc1cccnc1)c1ccc(S(=O)(=O)N2CCCCCC2)cc1 — higher, 10.6%
- CC(C)N1C(=O)CCC1C(=O)N1CCN(c2ccccn2)CC1 (centres unmarked) — higher, 8.69%
- CCCc1nnc(SCC(=O)N2C(C)CCCC2C)n1CC1CCCO1 (centres unmarked) — higher, 7.13%
- CN(C)S(=O)(=O)c1ccc(SCC(=O)N2CC(=O)Nc3ccccc32)nc1 — higher, 8.71%
- O=C1COc2ccc(S(=O)(=O)Nc3ccc(OC(F)(F)F)cc3)cc2N1 — higher, 11.7%
- COc1cccc(NC(=O)CSc2nc3ccccc3cc2Cc2ccccc2)c1 — lower, 3.83%
- Cc1ccccc1N1CCN(C2CCCN(C(=O)c3csc(C(C)C)n3)C2)CC1 (centres unmarked) — lower, -6.14%
- CNC(=O)COC(=O)/C=C/c1cn(-c2ccccc2)nc1-c1ccc(C)o1 — higher, 6.58%
- Cc1nc2ccc(NC(=O)c3oc4ccc(F)cc4c3C)cc2s1 — higher, 12.4%
- CCOc1ccc(N(CC(=O)NN=C2CCN(C)CC2)S(C)(=O)=O)cc1 — higher, 7.5%
- COc1ccc(CNC(=O)Cn2cc([N+](=O)[O-])cn2)cc1 — higher, 17.8%
